# Experimental data from article PMC12136788.
# This is one part of the list.
# B1: chr4:41262718:41262719:+_ENSG00000154277_ENST00000284440|perfect_dup|FALSE|FALSE (ssRNA)
# RNA: GGGAGUUCUACAGUCCGACGAUCUCCGAUUGUGCCACAGGAAUUCCCAAUGGUCUGCUUCAUGAAGUACACUUUAGGACUAACUUCUUGUCCCUUCAGCUCUUCAAUCUGCUUUUUCCUGAAGUUCUCAUGCUGGGCCGUGAGCAACAGAGGAUUGAGCAUCA
# B2: chr5:138654669:138654670:+_ENSG00000015479_ENST00000502499|hu_mus|motif|central (ssRNA)
# RNA: GGGAGUUCUACAGUCCGACGAUCUUUCUUUAUUCUCUUAUACUUCUGGGAUAAAUGAACUCUCACUGGCUUGCCAAACACGGAUGCUGGUGUAGUUGUAUAAUAAUCCACAGCAGCCUGAGCAUCUUCUGUGGUGGCCAUUUCCAACAGAGGAUUGAGCAUCA
# B3: chr2:47387792:47387793:-_ENSG00000143933_ENST00000272298|hu_hu|hu_hu_hu_mus_True|18_28 (ssRNA)
# RNA: GGGAGUUCUACAGUCCGACGAUCUAAGGACAAUGACAGUAAGAUAAGGGAAGAAAACAUGGAGGAAUGAAGUCCUAAUUACUAUACAUGCAUAUUUUUUGACAGUAAGGGAGAAACCUUUUACAGAGAUAAGUUACAAACAAACAACAGAGGAUUGAGCAUCA
# B4: chr7:75956504:75956505:-_ENSG00000170027_ENST00000307630|hu_hu|FALSE|FALSE (ssRNA)
# RNA: GGGAGUUCUACAGUCCGACGAUCAUAUAACUGCAUGUCACUAUAGCAACAUCCAAAACAGAUCAAUUUGUUACAAUCACUAUUUGGUAGAGCAAACUUUACCCCCAAAAGGAAAAAUUAAAUUAAAAAAAAAAAACCUUUAAACAACAGAGGAUUGAGCAUCA
# B5: chrX:71549762:71549763:+_ENSMUSG00000019087_ENSMUST00000019231|mus_mus|mus_mus_mus_hu_False|18_28 (ssRNA)
# RNA: GGGAGUUCUACAGUCCGACGAUCAAACCCGUGUACUUCUUAUUGUUAGCACAACAUCACCAGAAAACGAUAACGACAGCCAAGCAGGACAGACAGUUAAGUAGUACUUCCACACCUCGCAAAUUCAGGAGCCCUAUAACCUUACAACAGAGGAUUGAGCAUCA
# B6: chr8:98253062:98253063:-_ENSMUSG00000036550_ENSMUST00000098473|mus_hu|FALSE|FALSE (ssRNA)
# RNA: GGGAGUUCUACAGUCCGACGAUCGGUUUCCAACACAUGCUCAGGUGCAUUGAGUUCCAAGAGAAGCAUGAUAAAAAUUCGAUGGUAGGGAAGUUGCUGAAAUUCACUCUGACGAACAUCAUGAUCCUGAAGGAGAACUCCCACCAACAGAGGAUUGAGCAUCA
# B7: 42743316_42743436_1351_3pUTR_ENSG00000103994_ENST00000263805|human|control|control (ssRNA)
# RNA: GGGAGUUCUACAGUCCGACGAUCACUGUAAAUCCAGAGUCUUCUGAGAAGGGUAAGGCGUCCAGCGACGAGGCUUUUCCCUUGCCGCACUGCCAUUCUUUCCACUAACUUUGGAAGUAGCAGUGUCUGCUUGUUUAGUGGUUUCAACAGAGGAUUGAGCAUCA
# B8: 98547405_98547747_5270_CDS_ENSG00000196367_ENST00000355540|human|control|control (ssRNA)
# RNA: GGGAGUUCUACAGUCCGACGAUCAAAACGACCAGUAAAGGCUCGGAGCAGCUGGAACAGCAAUUCUAUAUCUCCGUAAUUCCUUUUGCAGUAGUUCAGCAGGCAGUAGGCCAGCAGCUUGGGCUCCUUCCAGUUGGUGGCUGCCAACAGAGGAUUGAGCAUCA
# B9: chr19:56882518:56882519:-_ENSMUSG00000035173_ENSMUST00000118592|mus_hu|motif|central (ssRNA)
# RNA: GGGAGUUCUACAGUCCGACGAUCCUGAGAAAGCUGCUUAAUUUUGUUAGUGUUUUUCUCAAGUUCCUUAUUUGCAUCUCGGAGUUUUUUCUCAAGUGUCUCUUUUUCCUUUCGAAGAUCUAAAGAUUCCUUCUCACCUCUUACCAACAGAGGAUUGAGCAUCA
# B10: chr2:179515052:179515053:+_ENSMUSG00000000305_ENSMUST00000000314|mus_hu|mus_mus_mus_hu_False|88_108 (ssRNA)
# RNA: GGGAGUUCUACAGUCCGACGAUCGCUUUCCCGCGCAGUCACCGUGAAGGCCACCUGCUCGGAGGGGACCUGCAGCUCCCGGGUGGCGAAGACUGUCCCAUCUGCCCCAACUUUGAAGUCCAUGCUGUUGGUCUCAUAUUGUGUCAACAGAGGAUUGAGCAUCA
# B11: chr8:104447970:104447971:+_ENSG00000164934_ENST00000297579|hu_hu|hu_hu_hu_mus_False|78_108 (ssRNA)
# RNA: GGGAGUUCUACAGUCCGACGAUCAUAUACCUCCCUGCUUCGGCUCUUGUCCACAGGAAAGAUUCGAAUAGACUUAUCAAAGCUGGCAGACACAAAUUCCUUCCCAGUGGGAGAGUAGUCCACAUCAAGUACUGCAGACACGUGCAACAGAGGAUUGAGCAUCA
# B12: 142756116_142757008_2225_CDS_ENSG00000163714_ENST00000493598|human|control|control (ssRNA)
# RNA: GGGAGUUCUACAGUCCGACGAUCUUUUGAUGGGGCAACUUUAAAUAUAGGCUCAUUCUUUUUUGAGUCUUCAGUUGCAUCCAAAGGCACUCCAUCAAGAUCAUCAUCAAGACUUUUUAUAGGGACUCCAUCAAGAUCAUCGAUCAACAGAGGAUUGAGCAUCA
# B13: chr10:76910771:76910772:+_ENSG00000156671_ENST00000542569|perfect_dup|motif|central (ssRNA)
# RNA: GGGAGUUCUACAGUCCGACGAUCCAUGUCAGGCACACGCUCAUGAACAAUAACCAUAAUGAAAGACGUAAACCCAAAUACGGUAAAAACAUAUACACAACUCAGGAUGGUCUUCCAGUACUCUGGGUCCAGUCUUCGAGCAGACAACAGAGGAUUGAGCAUCA
# B14: chr10:13251168:13251169:-_ENSMUSG00000019809_ENSMUST00000019945|mus_hu|motif|central (ssRNA)
# RNA: GGGAGUUCUACAGUCCGACGAUCAGCCAUAUUGUCUAGAAGUCUACUAAAACCUCGGUUUAAACAGGUAUUCAAAACUGUACGGAAAUCUGGGCUUUCCAACAUGUCUCUAGUUUCAUUGAGAAGUUUAAUAGUGGUAAUGUCCAACAGAGGAUUGAGCAUCA
# B15: 169768098_169771791_383_CDS_ENSG00000000460_ENST00000359326|human|control|control (ssRNA)
# RNA: GGGAGUUCUACAGUCCGACGAUCAUACAUCAUGUCAUCGAAUAAUUUCACAGUCUUUGGUAACACUUGUGAAAAGAAAGUCUGUUCCAAUGUCAGGUGGUUCAUAUGAGGUAAAAACAUUUCUACAAUAAUUUUCAAAAUUUGCAACAGAGGAUUGAGCAUCA
# B16: chr12:17277247:17277248:+_ENSMUSG00000020571_ENSMUST00000057288|mus_mus|motif|central (ssRNA)
# RNA: GGGAGUUCUACAGUCCGACGAUCAAUUUGAUGGCGUCAACUCGAUGACAUCAUCACUAGAAGAAUACAGACCGCUGACUGCGGGAAAGAAGGUGCAGCUCACCAGACCGAGCACCAGGCGAGCCAUGCCGAUCACCCGCAUUCCAACAGAGGAUUGAGCAUCA
# B17: chr14:103803487:103803488:+_ENSG00000100664_ENST00000558506|hu_mus|hu_hu_hu_mus_True|8_88 (ssRNA)
# RNA: GGGAGUUCUACAGUCCGACGAUCGAGUUUAUGAUGUGUGUCAAGCAUGCCUCGAUACCCACAGGCUUUACAAGAAUUACCUAUUGUUUGCUUCUUUGGAUUGACAUGCAGAUCUGUUUCAGGAUUCUCACAUUCAGGACAGAGCAACAGAGGAUUGAGCAUCA
# B18: 107682518_107682638_1107_CDS_ENSMUSG00000042590_ENSMUST00000080856|mouse|control|control (ssRNA)
# RNA: GGGAGUUCUACAGUCCGACGAUCUGGCUUAUAAGCAUAAUUUUUGACAAUCAUCUUAAUAAGAUUCAUGCACUGGACAAUGAAUCGCUCAAAUGUAACGCCUUCACCAACUUCAGUAAAAACAUAGCUUACAGAAAAUUCCAGCAACAGAGGAUUGAGCAUCA
# B19: chr11:837959:837960:+_ENSG00000177697_ENST00000530726|hu_mus|FALSE|FALSE (ssRNA)
# RNA: GGGAGUUCUACAGUCCGACGAUCGAUGCCAAUGCCCACCGCCCCAAUGACCCGCAGGUGCUCCUGAAUGAAGGUCUCCAGCUUAGUGAUACAGCCACCCUCCACUUUAUAGAUGUUGGAGGCAUGGUCCCGCUUACCACAGCCCAACAGAGGAUUGAGCAUCA
# B20: chr7:116084223:116084224:+_ENSMUSG00000031029_ENSMUST00000033342|mus_mus|FALSE|FALSE (ssRNA)
# RNA: GGGAGUUCUACAGUCCGACGAUCUGAGGCCCCUCCCACUUGUUGUAAGUCACUUGAGAGUCCAAUCACCCGGUUGGGGCUAAAACACGUCUUCAUGAUGAGGUCAACUCCAAUGCGUUCAGUGUCAUAAUACGCGUACUUCACCAACAGAGGAUUGAGCAUCA
# B21: chr3:119450855:119450856:-_ENSMUSG00000028134_ENSMUST00000029780|mus_hu|mus_mus_mus_hu_False|8_58 (ssRNA)
# RNA: GGGAGUUCUACAGUCCGACGAUCUGUGGUGCCACUAAGAGGAGUAUUUGCUGUCUGGACAGCUGUCACAGCUUGAAGAACUACUUGAGCACGUUGGUUUAAUGUAUUAUCUGUCUUUAGUUCUUUGUGAUUGGAGUACUGGAUCAACAGAGGAUUGAGCAUCA
# B22: chr14:21319651:21319652:-_ENSMUSG00000021816_ENSMUST00000161445|mus_hu|FALSE|FALSE (ssRNA)
# RNA: GGGAGUUCUACAGUCCGACGAUCCUAACAUCUGAAUGAUUGAACAGAACCAUUGCUUCUAGGCUGCAUUGCUUAAUCAAAAACACUUCCAGAACAUUUUAAAAUUUCCUUUGCAUUAAAACAUAAAAAUGAUAGAAAGCCAGCCAACAGAGGAUUGAGCAUCA
# Target: T1, UNK ZnF1-3 (human, UniProt Q9C0B0 31-174)
# T1 sequence: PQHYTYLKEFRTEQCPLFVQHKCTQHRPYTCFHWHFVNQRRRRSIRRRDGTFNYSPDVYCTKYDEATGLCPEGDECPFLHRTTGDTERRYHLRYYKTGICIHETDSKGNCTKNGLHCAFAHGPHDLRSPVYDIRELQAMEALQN
# Assay: nsRBNS (natural sequence RNA bind-n-seq); RBNS binding buffer (assumed for nsRBNS): 25 mM Tris pH 7.5, 150 mM KCl, 3 mM MgCl2, 0.01% Triton X-100, 500 ug/ml BSA, 20 U/ml SUPERase-In, 4 C; UNK is unkempt and MSI1 is Musashi-1; names of the RNAs are library labels; protein concentration not given here; high values mean tight binding
row,Binder,binding signal
1,B1,0.857 enrichment R
2,B2,1.1 enrichment R
3,B3,1.88 enrichment R
4,B4,1.78 enrichment R
5,B5,1.49 enrichment R
6,B6,1.72 enrichment R
7,B7,0.547 enrichment R
8,B8,1.2 enrichment R
9,B9,0.421 enrichment R
10,B10,0.77 enrichment R
11,B11,1.04 enrichment R
12,B12,0.794 enrichment R
13,B13,1.05 enrichment R
14,B14,1.29 enrichment R
15,B15,1.71 enrichment R
16,B16,0.269 enrichment R
17,B17,1.36 enrichment R
18,B18,1.1 enrichment R
19,B19,1.17 enrichment R
20,B20,0.9 enrichment R
21,B21,0.971 enrichment R
22,B22,1.29 enrichment R
